# The campaign covered roughly 310,000 compounds. About 2,200 (0.71%) showed an effect of 50% or more. The effect is printed as a negative number. Some of the results follow.
# Biological target: human ether-à-go-go-related gene (hERG) potassium channel (human, UniProt Q12809)
# Assay: primary screen, population patch clamp on CHO cells stably expressing hERG
# Chain of human ether-à-go-go-related gene (hERG) potassium channel (Q12809 whole entry, looked up): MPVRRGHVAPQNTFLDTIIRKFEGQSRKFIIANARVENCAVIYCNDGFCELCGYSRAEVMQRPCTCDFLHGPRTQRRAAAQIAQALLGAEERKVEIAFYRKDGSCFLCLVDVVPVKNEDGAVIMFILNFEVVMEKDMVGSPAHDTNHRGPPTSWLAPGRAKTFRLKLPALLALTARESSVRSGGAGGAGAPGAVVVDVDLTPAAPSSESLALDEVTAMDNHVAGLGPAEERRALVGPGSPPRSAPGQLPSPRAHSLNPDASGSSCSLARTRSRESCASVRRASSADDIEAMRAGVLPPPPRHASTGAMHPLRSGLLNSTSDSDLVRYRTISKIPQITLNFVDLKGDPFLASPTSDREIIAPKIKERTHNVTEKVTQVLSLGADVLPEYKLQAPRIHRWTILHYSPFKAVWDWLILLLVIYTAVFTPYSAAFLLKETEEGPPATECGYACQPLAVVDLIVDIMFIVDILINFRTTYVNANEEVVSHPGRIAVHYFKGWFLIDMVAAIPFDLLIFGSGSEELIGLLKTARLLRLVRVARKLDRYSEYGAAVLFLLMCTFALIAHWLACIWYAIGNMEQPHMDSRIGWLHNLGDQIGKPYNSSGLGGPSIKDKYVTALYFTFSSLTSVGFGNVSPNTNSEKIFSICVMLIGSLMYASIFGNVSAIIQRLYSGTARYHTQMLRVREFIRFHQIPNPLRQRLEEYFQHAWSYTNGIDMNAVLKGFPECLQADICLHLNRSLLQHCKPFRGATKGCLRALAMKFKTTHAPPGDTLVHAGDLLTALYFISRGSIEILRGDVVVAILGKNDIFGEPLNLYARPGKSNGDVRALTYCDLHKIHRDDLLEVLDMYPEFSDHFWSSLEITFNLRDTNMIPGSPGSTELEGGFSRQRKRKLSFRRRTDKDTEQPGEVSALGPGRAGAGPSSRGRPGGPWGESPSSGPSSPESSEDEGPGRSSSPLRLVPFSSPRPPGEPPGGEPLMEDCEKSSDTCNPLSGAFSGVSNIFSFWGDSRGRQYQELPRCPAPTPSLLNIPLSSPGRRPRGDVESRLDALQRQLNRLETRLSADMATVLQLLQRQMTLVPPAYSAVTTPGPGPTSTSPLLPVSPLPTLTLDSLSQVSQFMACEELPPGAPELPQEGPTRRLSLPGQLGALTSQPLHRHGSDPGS
row,Compound,"hERG current change (%, negative = inhibition) at 1uM"
1,COc1ccc(CC2(CO)CCN(C(C)COc3ccccc3)CC2)cc1 (stereo not drawn),-68.4%
2,CC1Cc2ccccc2N1CC(=O)NCc1ccccc1Cl (stereo not drawn),8.38%
3,C/C(CC(C)C)=N\Oc1nc(C)cc(C)n1,23%
4,COc1ccc2ccccc2c1/C=N/NC(=S)Nc1cc(S(=O)(=O)N2CCOCC2)ccc1N1CCOCC1,17.8%
5,COc1ccc(S(=O)(=O)N2CCCC2=O)cc1N(C)S(C)(=O)=O,15.4%
6,O=C(CN1CCN(c2ccc(F)cc2)CC1)Nc1ccc(-n2cnnn2)cc1,8.42%
7,Cc1ccc2c(c1)=C(c1sc(N(C)c3ccc(O)cc3)nc1O)C(=O)N=2,14.6%
8,COc1ccc(CCOC(=O)c2ccc(NC(=O)CC#N)cc2)cc1,14.1%
9,Cn1nnnc1SCCNC(=O)C1CCC(=O)N(Cc2ccc(Cl)cc2)C1 (stereo not drawn),-0.925%
10,Cc1ccc(-n2c(=O)c3cc4c(=O)n(-c5ccc(C)c(C)c5)c(=O)c4c(C(=O)c4ccc(C(=O)O)cc4)c3c2=O)cc1C,20.4%
11,c1ccc(-n2nnnc2-c2cnc(-c3cccnc3)nc2-c2cccs2)cc1,11.9%
12,COc1ccc(NC(=S)NNC(=O)COc2ccc(Cl)cc2Cl)cc1,7.15%
13,COC(=O)C1=CN(C2CC2)C=C(C(=O)OC)C1c1ccc(C(F)(F)F)cc1,1.15%
14,O=C(CCCc1ccccc1)Nc1ccc(S(=O)(=O)N2CCOCC2)cc1,-1.23%
15,COc1ccc(Cc2nnc(NS(=O)(=O)c3ccc(Cl)cc3)s2)cc1OC,9.24%
16,CSc1ccc(CCNC(=O)c2ccc(CS(=O)Cc3ccc(Cl)cc3)o2)cc1 (stereo not drawn),-1.08%
17,COc1ccc(-c2nc3c4ccccc4[nH]c(=O)n3n2)cc1,11.3%
18,Brc1ccc2c(c1)C(OC1CN3CCC1CC3)c1ccccc1CS2.O=C(O)/C=C\C(=O)O (stereo not drawn),-27.6%
19,O=c1cnnc(NCc2ccccc2)[nH]1,15.8%
20,CCOC(=O)c1[nH]c2ccc(OC)cc2c1NC(=O)NC(C)C,13%
21,CCOC(=O)c1cn(Cc2ccccc2)c2cc(C)nn2c1=O,9.39%
22,CC(C)CNC(=O)c1c(N)n(Cc2ccc3c(c2)OCO3)c2nc3ccccc3nc12,9.52%

row,Compound,"hERG current change (%, negative = inhibition) at 1uM"
1,CCCCCC(=O)NNC(=O)Nc1ccccc1,8.85%
2,Cc1ccc(S(=O)(=O)NC(C)(C)C)cc1C(=O)OCC(=O)N1CCCC1=O,-1.6%
3,O=C(O)c1ccc(N2CCCS2(=O)=O)cc1,16.5%
4,COc1ccccc1-c1ccc(Nc2cccc(C(C)=O)c2)nn1,6.05%
5,O=C(c1cc2nc(-c3cccs3)cc(C(F)(F)F)n2n1)N1CCCc2ccccc21,10.3%
6,CCC(=O)N1CCN(c2ccccc2NC(=O)c2cccs2)CC1,-10.1%
7,O=C(CSc1nc2ccccc2n1Cc1ccccc1Cl)N/N=C/c1ccccc1C(=O)O,14.5%
8,O=C(O)CCCN1C(=O)/C(=C/C=C/c2ccco2)SC1=S,12.5%
9,CC(NC(=O)c1cccs1)C(S)c1ccccc1 (stereo not drawn),10.4%
10,Cc1ccc(-c2cc(-c3ccccc3Cl)[nH]n2)c(O)c1,-9.52%
11,COc1c(F)c(F)c(C(=O)O)c(Nc2cccc(C)c2)c1F,14.4%
12,CCCCC1(C)NC(=O)c2c(C)sc(C(=O)OCC)c2N1 (stereo not drawn),8.47%
13,COc1ccc(OC)c(S(=O)(=O)N(C)CC(=O)Nc2ccc3c(c2)OCCO3)c1,18%
14,COCCN1C(=S)N[C@@H](c2cccc(F)c2)C(C(=O)OC)=C1C,2.84%
15,Cc1cccc(N2CCN(S(=O)(=O)c3cn(C)cn3)CC2)c1C,21.2%
16,Cc1cc(OCC(=O)N2CCN(c3ccccc3)CC2)c2c(C)c(C)c(=O)oc2c1,14%
17,CCOc1ccc(NC(=O)N(CCC(C)C)C2CCN(C(C)=O)CC2)cc1,7.21%
18,CCOc1ccc(N(C(=O)c2snc(C(N)=O)c2N)C(C(=O)NCC2CCCO2)c2c[nH]c3ccccc23)cc1 (stereo not drawn),15.4%
19,Cc1ccc(N(C(=O)C(F)(F)F)C(C(=O)NC2CCCCC2)c2cccs2)cc1 (stereo not drawn),8.94%
20,Cn1ccc(NC(=O)CCl)n1,4.47%
21,COc1ccc(CC(=O)NC(=S)Nc2cccc(CO)c2)cc1,-10.8%
22,CC1CCCCN1C(=O)COC(=O)C1CCN(S(=O)(=O)c2ccc(Cl)c(C(F)(F)F)c2)CC1 (stereo not drawn),7.66%

row,Compound,"hERG current change (%, negative = inhibition) at 1uM"
1,CCOC(=O)c1c(C)nn(-c2ncccc2NC(=O)CCC(=O)O)c1C,15.5%
2,CN1C(=O)/C(=C/c2coc3ccc(O)cc3c2=O)SC1=S,10.8%
3,Brc1ccc(/C=N/Nc2ccccn2)cc1,11.3%
4,CCOC(=O)C1=C(C)NC(C)=C(C(=O)OCC)C1C(=O)OCC(=O)NC(C)C,8.88%
5,Cc1cc(=O)oc(C)c1C(=O)N1CCN(Cc2ccc3c(c2)OCO3)CC1,1.53%
6,O=C(NCc1ccccc1)c1ccc[n+]([O-])c1,19.5%
7,Cc1cnc(C(=O)OC(C)C(=O)Nc2ccc(Oc3ccccc3)cc2)cn1 (stereo not drawn),11.7%
8,COc1ccccc1C(=O)NCC(c1cccs1)N1CCc2ccccc21 (stereo not drawn),10.3%
9,CCCCCCOc1ccc(C(=O)n2cnc(N)n2)cc1,4.86%
10,COc1cccc(-c2cc(C(F)(F)F)n3nc(N)nc3n2)c1,9.28%
11,Nc1ncnc2c1ncn2CCOc1ccccc1,11.7%
12,Cc1cc(C)n(-c2n[nH]c(=O)c3ccccc23)n1,12.2%
13,COCc1c(C(=O)N/N=C(\C)c2ccncc2)nnn1-c1nonc1N,17%
14,COc1cc([N+](=O)[O-])ccc1N1C(=O)CC(Sc2nccc(C)n2)C1=O (stereo not drawn),6.15%
15,CCCCCc1c(C)nc(Nc2ccccc2)[nH]c1=O,13.6%
16,COCCSc1ccccc1C(=O)Nc1ccccc1C#N,10.7%
17,Cc1cc(C)cc(NC(=O)C(OC(=O)Cn2cnc3c2c(=O)n(C)c(=O)n3C)c2ccccc2)c1 (stereo not drawn),-33.1%
18,CCc1nc2c(cnn2-c2ccc(F)cc2)c(=O)n1-c1ccc(N2CCC(C)CC2)cc1,13.7%
19,O=C(Nc1nc2c(s1)C(=O)CCC2)c1ccccc1,17.9%
20,CCN(CC(=O)NC1CCCC1)S(=O)(=O)c1ccc(C)cc1,0.468%
21,COc1ccc(/C=N/Nc2ccc(C(F)(F)F)cc2[N+](=O)[O-])cc1O,3.36%
22,CCC(C(=O)NCc1cccs1)n1nc(C)n2c(cc3occc32)c1=O (stereo not drawn),6.25%

row,Compound,"hERG current change (%, negative = inhibition) at 1uM"
1,C=CCc1c(C)nc(SCc2ccccc2)[nH]c1=O,10.4%
2,COc1ccc(CCNC(=O)c2ccc(Cl)c(S(=O)(=O)N3CCCCCC3)c2)cc1,-0.87%
3,Cc1ccc([N+](=O)[O-])cc1NC(=O)CN(C(=O)c1ccc(Cl)cc1)C1CCCCC1,-2.2%
4,O=C(NC1CCN(C(=O)Nc2ccccc2Cl)CC1)c1ccccc1,1.3%
5,CCCC(=O)Nc1ccc2c(c1)nc(CN1CCN(C(=O)OCC)CC1)n2C,15%
6,C=C1C[C@]23C[C@@]1(O)CC[C@H]2[C@@]12C=C[C@H](O)[C@@](C)(C(=O)O1)[C@H]2[C@@H]3C(=O)O,1.57%
7,Cn1c(N2CCOCC2)cc(=O)n(C)c1=O,11.1%
8,Cc1cc(=O)oc2ccc(OC(=O)c3cccc(S(=O)(=O)N4CCOCC4)c3)cc12,-23.1%
9,Cc1ccc(S(=O)(=O)N2CCC(C(=O)OC(C)C(=O)N(C)c3ccccc3)CC2)cc1C (stereo not drawn),7.92%
10,O=C(NCC(c1cccnc1)N1CCN(c2ccc(F)cc2)CC1)c1ccc2c(c1)OCO2 (stereo not drawn),-25%
11,CCOc1ccc(/C=N/NC(=S)NC2CC3C=CC2C3)cc1 (stereo not drawn),13.2%
12,C(=N\Nc1nc(-c2ccccc2)cs1)/c1cccs1,12.7%
13,Cc1ccc(F)cc1NC(=O)CSCc1nc2sc(C)c(C)c2c(=O)[nH]1,5.22%
14,O=C(NCCC1=CCCCC1)C(=O)NCC1OCCCN1S(=O)(=O)c1cc(F)ccc1F (stereo not drawn),5.85%
15,COc1ccccc1NC(=O)c1ccc(NC(=O)CN2CCCC2)cc1,-5.47%
16,COc1cc(CNCCN2CCOCC2)ccc1OCc1ccc(Cl)cc1Cl.Cl,-26%
17,O=C(c1cccs1)N1CCC(c2nc3c(nnn3Cc3c(Cl)cccc3Cl)c(=O)[nH]2)CC1,6.3%
18,CCN1CCN(C(=O)c2cn(CCOC)c(=O)c3c2c2ccccc2n3C)CC1,13.4%
19,COC(=O)c1ccc(NC(=O)c2ccc3c(c2)C(=O)N(Cc2cccnc2)C3=O)cc1,-5.89%
20,COC(=O)c1cc(S(=O)(=O)NCc2ccccc2)cn1C,10.6%
21,Cn1cccc1CC(=O)NNC(=S)Nc1ccccc1Cl,8.52%
